Results taken from patent US9873709B2 (priority 2013, dated 2018).

These compounds were tested against isolated recombinant JAK1 kinase domain (Homo sapiens (Human), UniProt P23458). Conditions: read-out: JAK1 Ki; isolated recombinant JAK1 kinase domain, 25 μM ATP.
Compound `CCOC(=O)N1CC=C(c2cccn3nc(Nc4ccc(C(=O)NCCN5CCCCC5)cc4)nc23)CC1` [Example 2-294, ethyl 4-[2-[4-[2-(1-piperidyl)ethylcarbamoyl]anilino]-[1,2,4]triazolo[1,5-a]pyridin-8-yl]-3,6-dihydro-2H-pyridine-1-carboxylate] has a Ki of 3.15 nM.
`CCOC(=O)N1CC=C(c2cccn3nc(Nc4ccc(C(=O)N5CCCC(N6CCOCC6)C5)cc4)nc23)CC1` (stereo not shown) [Example 2-295, ethyl 4-[2-[4-(3-morpholinopiperidine-1-carbonyl)anilino]-[1,2,4]triazolo[1,5-a]pyridin-8-yl]-3,6-dihydro-2H-pyridine-1-carboxylate] showed a Ki of 3.27 nM.
`CCOC(=O)N1CC=C(c2cccn3nc(Nc4ccc(C(=O)NCC5CCNC5)cc4)nc23)CC1` (stereo not shown) [Example 2-296, ethyl 4-[2-[4-(pyrrolidin-3-ylmethylcarbamoyl)anilino]-[1,2,4]triazolo[1,5-a]pyridin-8-yl]-3,6-dihydro-2H-pyridine-1-carboxylate] gave a Ki of 1.73 nM.
`CCOC(=O)N1CC=C(c2cccn3nc(Nc4ccc(C(=O)N5CCN(Cc6cccnc6)CC5)cc4)nc23)CC1` [Example 2-297, ethyl 4-[2-[4-[4-(3-pyridylmethyl)piperazine-1-carbonyl]anilino]-[1,2,4]triazolo[1,5-a]pyridin-8-yl]-3,6-dihydro-2H-pyridine-1-carboxylate] gave a Ki of 2.05 nM.
Work on `CCOC(=O)N1CC=C(c2cccn3nc(Nc4ccc(C(=O)N5CCC(N6CCN(C)CC6)CC5)cc4)nc23)CC1` [Example 2-298, ethyl 4-[2-[4-[4-(4-methylpiperazin-1-yl)piperidine-1-carbonyl]anilino]-[1,2,4]triazolo[1,5-a]pyridin-8-yl]-3,6-dihydro-2H-pyridine-1-carboxylate] yielded a Ki of 3.08 nM.
`CCOC(=O)N1CC=C(c2cccn3nc(Nc4ccc(C(=O)N5CCN(CCn6ccnc6)CC5)cc4)nc23)CC1` [Example 2-299, ethyl 4-[2-[4-[4-(2-imidazol-1-ylethyl)piperazine-1-carbonyl]anilino]-[1,2,4]triazolo[1,5-a]pyridin-8-yl]-3,6-dihydro-2H-pyridine-1-carboxylate] showed a Ki of 3.05 nM.
For `CCOC(=O)N1CC=C(c2cccn3nc(Nc4ccc(C(=O)N5CCN(CC(C)C)CC5)cc4)nc23)CC1` [Example 2-301, ethyl 4-[2-[4-(4-isobutylpiperazine-1-carbonyl)anilino]-[1,2,4]triazolo[1,5-a]pyridin-8-yl]-3,6-dihydro-2H-pyridine-1-carboxylate], the Ki was 3.71 nM.
`CCOC(=O)N1CC=C(c2cccn3nc(Nc4ccc(C(=O)N5CCC(N6CCCC6)CC5)cc4)nc23)CC1` [Example 2-302, ethyl 4-[2-[4-(4-pyrrolidin-1-ylpiperidine-1-carbonyl)anilino]-[1,2,4]triazolo[1,5-a]pyridin-8-yl]-3,6-dihydro-2H-pyridine-1-carboxylate] gave a Ki of 3.48 nM.
`CCOC(=O)N1CC=C(c2cccn3nc(Nc4ccc(C(=O)N(C5CC5)C5CCN(C)CC5)cc4)nc23)CC1` [Example 2-303, ethyl 4-[2-[4-[cyclopropyl-(1-methyl-4-piperidyl)carbamoyl]anilino]-[1,2,4]triazolo[1,5-a]pyridin-8-yl]-3,6-dihydro-2H-pyridine-1-carboxylate] was tested, and the Ki was 3.61 nM.
Compound `CCOC(=O)N1CC=C(c2cccn3nc(Nc4ccc(C(=O)N5CCCC(O)(CN(C)C)CC5)cc4)nc23)CC1` (stereo not shown) [Example 2-304, ethyl 4-[2-[4-[4-[(dimethylamino)methyl]-4-hydroxy-azepane-1-carbonyl]anilino]-[1,2,4]triazolo[1,5-a]pyridin-8-yl]-3,6-dihydro-2H-pyridine-1-carboxylate] has a Ki of 6.24 nM.
Compound `CCOC(=O)N1CC=C(c2cccn3nc(Nc4ccc(C(=O)N(C)CC5CCN(CC)C5)cc4)nc23)CC1` (stereo not shown) [Example 2-305, ethyl 4-[2-[4-[(1-ethylpyrrolidin-3-yl)methyl-methyl-carbamoyl]anilino]-[1,2,4]triazolo[1,5-a]pyridin-8-yl]-3,6-dihydro-2H-pyridine-1-carboxylate] has a Ki of 3.84 nM.
In the case of `CCOC(=O)N1CC=C(c2cccn3nc(Nc4ccc(C(=O)N5CCC(CN)CC5)cc4)nc23)CC1` [Example 2-307, ethyl 4-[2-[4-[4-(aminomethyl)piperidine-1-carbonyl]anilino]-[1,2,4]triazolo[1,5-a]pyridin-8-yl]-3,6-dihydro-2H-pyridine-1-carboxylate], the Ki is reported as 2.65 nM.
For `CCOC(=O)N1CC=C(c2cccn3nc(Nc4ccc(C(=O)N5CCC6CNCC65)cc4)nc23)CC1` (stereo not shown) [Example 2-308, ethyl 4-[2-[4-(3,3a,4,5,6,6a-hexahydro-2H-pyrrolo[2,3-c]pyrrole-1-carbonyl)anilino]-[1,2,4]triazolo[1,5-a]pyridin-8-yl]-3,6-dihydro-2H-pyridine-1-carboxylate], the Ki was 1.98 nM.
With `CCOC(=O)N1CC=C(c2cccn3nc(Nc4ccc(C(=O)N5CCC6(CC5)CNCCO6)cc4)nc23)CC1` [Example 2-309, ethyl 4-[2-[4-(1-oxa-4,9-diazaspiro[5.5]undecane-9-carbonyl)anilino]-[1,2,4]triazolo[1,5-a]pyridin-8-yl]-3,6-dihydro-2H-pyridine-1-carboxylate] the Ki was 2.09 nM.
Compound `CCOC(=O)N1CC=C(c2cccn3nc(Nc4ccc(C(=O)N5CCC6(CCCN6)C5)cc4)nc23)CC1` (stereo not shown) [Example 2-310, ethyl 4-[2-[4-(1,7-diazaspiro[4.4]nonane-7-carbonyl)anilino]-[1,2,4]triazolo[1,5-a]pyridin-8-yl]-3,6-dihydro-2H-pyridine-1-carboxylate] has a Ki of 3.87 nM.
For `CCOC(=O)N1CC=C(c2cccn3nc(Nc4ccc(C(=O)N5CCCC56CCNC6)cc4)nc23)CC1` (stereo not shown) [Example 2-311, ethyl 4-[2-[4-(1,7-diazaspiro[4.4]nonane-1-carbonyl)anilino]-[1,2,4]triazolo[1,5-a]pyridin-8-yl]-3,6-dihydro-2H-pyridine-1-carboxylate], the Ki was 6.86 nM.
Compound `CCOC(=O)N1CC=C(c2cccn3nc(Nc4ccc(C(=O)N5CCC6(CCCNC6)C5)cc4)nc23)CC1` (stereo not shown) [Example 2-312, ethyl 4-[2-[4-(2,9-diazaspiro[4.5]decane-2-carbonyl)anilino]-[1,2,4]triazolo[1,5-a]pyridin-8-yl]-3,6-dihydro-2H-pyridine-1-carboxylate] has a Ki of 2.06 nM.
For `O=C(CCC(F)(F)F)N1CC=C(c2cccn3nc(Nc4ccc(C(=O)N5CC6CNCC6C5)cc4)nc23)CC1` (stereo not shown) [Example 2-313, 1-[4-[2-[4-(2,3,3a,4,6,6a-hexahydro-1H-pyrrolo[3,4-c]pyrrole-5-carbonyl)anilino]-[1,2,4]triazolo[1,5-a]pyridin-8-yl]-3,6-dihydro-2H-pyridin-1-yl]-4,4,4-trifluoro-butan-1-one], the Ki was 1.57 nM.
`O=C(CCC(F)(F)F)N1CC=C(c2cccn3nc(Nc4ccc(C(=O)N5CCC6(CC5)CNC6)cc4)nc23)CC1` [Example 2-314, 1-[4-[2-[4-(2,7-diazaspiro[3.5]nonane-7-carbonyl)anilino]-[1,2,4]triazolo[1,5-a]pyridin-8-yl]-3,6-dihydro-2H-pyridin-1-yl]-4,4,4-trifluoro-butan-1-one] showed a Ki of 0.63 nM.
Work on `NC1CC2(CCN(C(=O)c3ccc(Nc4nc5c(C6=CCN(C(=O)CCC(F)(F)F)CC6)cccn5n4)cc3)CC2)C1` [Example 2-315, 1-[4-[2-[4-(2-amino-7-azaspiro[3.5]nonane-7-carbonyl)anilino]-[1,2,4]triazolo[1,5-a]pyridin-8-yl]-3,6-dihydro-2H-pyridin-1-yl]-4,4,4-trifluoro-butan-1-one] yielded a Ki of 1.73 nM.
Work on `O=C(NCCC1CCCN1)c1ccc(Nc2nc3c(C4=CCN(C(=O)CCC(F)(F)F)CC4)cccn3n2)cc1` (stereo not shown) [Example 2-316, N-(2-pyrrolidin-2-ylethyl)-4-[[8-[1-(4,4,4-trifluorobutanoyl)-3,6-dihydro-2H-pyridin-4-yl]-[1,2,4]triazolo[1,5-a]pyridin-2-yl]amino]benzamide] yielded a Ki of 0.69 nM.
For `O=C(NCC1CCCN1)c1ccc(Nc2nc3c(C4=CCN(C(=O)CCC(F)(F)F)CC4)cccn3n2)cc1` (stereo not shown) [Example 2-317, N-(pyrrolidin-2-ylmethyl)-4-[[8-[1-(4,4,4-trifluorobutanoyl)-3,6-dihydro-2H-pyridin-4-yl]-[1,2,4]triazolo[1,5-a]pyridin-2-yl]amino]benzamide], the Ki was 3.03 nM.
`O=C(CCC(F)(F)F)N1CC=C(c2cccn3nc(Nc4ccc(C(=O)N5CCNCC5)cc4)nc23)CC1` [Example 2-318, 4,4,4-trifluoro-1-[4-[2-[4-(piperazine-1-carbonyl)anilino]-[1,2,4]triazolo[1,5-a]pyridin-8-yl]-3,6-dihydro-2H-pyridin-1-yl]butan-1-one] was tested, and the Ki was 0.65 nM.
For `CC1CNCCN1C(=O)c1ccc(Nc2nc3c(C4=CCN(C(=O)CCC(F)(F)F)CC4)cccn3n2)cc1` (stereo not shown) [Example 2-319, 4,4,4-trifluoro-1-[4-[2-[4-(2-methylpiperazine-1-carbonyl)anilino]-[1,2,4]triazolo[1,5-a]pyridin-8-yl]-3,6-dihydro-2H-pyridin-1-yl]butan-1-one], the Ki was 0.57 nM.
`O=C(CCC(F)(F)F)N1CC=C(c2cccn3nc(Nc4ccc(C(=O)N5CC[C@H]6CNC[C@H]65)cc4)nc23)CC1` [Example 2-320, 1-[4-[2-[4-[(3aS,6aS)-3,3a,4,5,6,6a-hexahydro-2H-pyrrolo[2,3-c]pyrrole-1-carbonyl]anilino]-[1,2,4]triazolo[1,5-a]pyridin-8-yl]-3,6-dihydro-2H-pyridin-1-yl]-4,4,4-trifluoro-butan-1-one] showed a Ki of 0.76 nM.
Compound `O=C(NC1CC2(CCNCC2)C1)c1ccc(Nc2nc3c(C4=CCN(C(=O)CCC(F)(F)F)CC4)cccn3n2)cc1` [Example 2-322, N-(7-azaspiro[3.5]nonan-2-yl)-4-[[8-[1-(4,4,4-trifluorobutanoyl)-3,6-dihydro-2H-pyridin-4-yl]-[1,2,4]triazolo[1,5-a]pyridin-2-yl]amino]benzamide] has a Ki of 0.86 nM.
For `N[C@]12C[C@H]1CN(C(=O)c1ccc(Nc3nc4c(C5=CCN(C(=O)CCC(F)(F)F)CC5)cccn4n3)cc1)C2` [Example 2-323], the Ki was 1.44 nM.
Compound `CN(C)C(=O)C1CN(C(=O)c2ccc(Nc3nc4c(C5=CCN(C(=O)CCC(F)(F)F)CC5)cccn4n3)cc2)CCN1C` (stereo not shown) [Example 2-325, N,N,1-trimethyl-4-[4-[[8-[1-(4,4,4-trifluorobutanoyl)-3,6-dihydro-2H-pyridin-4-yl]-[1,2,4]triazolo[1,5-a]pyridin-2-yl]amino]benzoyl] piperazine-2-carboxamide] has a Ki of 1.59 nM.
